# Over roughly 33,000 sequences, “E-score (-0.5 to 0.5)” has its median near -0.032; the highest 2% begin near 0.36. Some of the results follow.
# Biological target: T1, Sko1 (UniProt Q02100)
# T1 sequence: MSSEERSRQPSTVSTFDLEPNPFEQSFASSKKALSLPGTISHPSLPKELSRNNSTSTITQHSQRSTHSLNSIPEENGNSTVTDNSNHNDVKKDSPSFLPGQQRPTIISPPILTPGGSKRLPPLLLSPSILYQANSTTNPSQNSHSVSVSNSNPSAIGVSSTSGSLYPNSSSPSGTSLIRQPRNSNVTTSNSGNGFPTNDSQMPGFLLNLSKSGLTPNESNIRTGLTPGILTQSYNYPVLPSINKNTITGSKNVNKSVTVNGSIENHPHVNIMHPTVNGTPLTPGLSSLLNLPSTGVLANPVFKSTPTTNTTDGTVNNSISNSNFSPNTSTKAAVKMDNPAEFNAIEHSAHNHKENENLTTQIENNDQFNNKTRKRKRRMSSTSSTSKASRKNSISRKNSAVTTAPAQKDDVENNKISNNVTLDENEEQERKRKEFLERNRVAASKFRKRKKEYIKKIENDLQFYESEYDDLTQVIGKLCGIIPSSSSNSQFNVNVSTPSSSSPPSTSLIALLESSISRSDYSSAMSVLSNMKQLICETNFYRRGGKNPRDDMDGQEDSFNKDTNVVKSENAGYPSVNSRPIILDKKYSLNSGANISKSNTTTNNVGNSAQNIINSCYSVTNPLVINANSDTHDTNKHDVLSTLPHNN
# Assay: PBM E-score (8-mer binding enrichment) (E-score (-0.5 to 0.5)); higher = stronger / more preferred TF binding; most listed sequences are background and not binding sites
# Settings: protein concentration: 200 nM; construct: GST-full length
# Outline: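 PURExpress in vitro transcription/translation supplied GST-tagged yeast transcription factors, either full-length or DNA-binding domain. Applied at about 100-200 nM to universal all-10-mer Agilent arrays double-stranded by primer extension, the bound protein was detected with fluorescent anti-GST. E-scores, modified Wilcoxon-Mann-Whitney statistics, were given by the Universal PBM Analysis Suite to ungapped eight-base words pooled with their reverse complements after masliner normalisation.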
row,Sequence,PBM E-score
1,GATGATCC,-0.0343
2,CTATAGAA,0.0102
3,AGGTGGTG,-0.0259
4,CTAACCGC,0.0487
5,CCGGAGAG,-0.124
6,ATCGTAGA,0.141
7,CTAACTCC,-0.145
8,TTATCGAA,0.078
9,CTTACGTA,0.489
10,AACGAAAA,0.135
11,AACGAGAA,0.171
12,TAGTCGGA,-0.0783
13,ACCCGAGT,-0.271
14,ATAAGAAA,0.254
15,ACTAACCG,0.00032
16,TACCTACA,0.131
17,AACTTTCC,-0.146
18,AAGTGAAG,-0.126
19,AAACGGCT,-0.219
20,ATGGAGTG,-0.13
21,ACTATCAT,0.153
22,AGGTTAGA,-0.137
23,AGTTCACA,0.0898
24,TCAATCAA,0.135
25,ATCCCCCC,-0.402

row,Sequence,PBM E-score
1,ACCGCAAC,0.0766
2,CGTATATC,0.319
3,CGTGCCTA,-0.0135
4,CTCAGGCC,-0.15
5,CTTTTCCA,-0.22
6,AGTACTCG,0.0859
7,ACTCCGCT,-0.299
8,CGCCAGGC,-0.227
9,GACTCCCA,-0.398
10,GCGTTATA,0.194
11,GGGTCGTA,0.0494
12,GACACGAA,0.0595
13,AGCTCTAG,-0.194
14,GAATCAAC,0.0911
15,CATGGGTC,-0.134
16,TACGTGCA,0.423
17,CACATCAA,0.0965
18,AGAAGGAT,-0.0487
19,CCTTGAAG,-0.0857
20,ACCCCATA,-0.124
21,ACAGTCCC,-0.27
22,TAGGGGAA,-0.175
23,CCGAATCA,-0.0167
24,GCATGCAC,0.115
25,GCCATTAA,0.11

row,Sequence,PBM E-score
1,ACGCCAGC,0.0567
2,TAGCCTCA,-0.107
3,CTCAATCC,0.058
4,GGCGACTA,-0.169
5,CTCCCCTA,-0.21
6,ATTTTACA,0.108
7,CGCTTGCA,-0.102
8,CGCCGCAG,-0.311
9,CAACGGAC,-0.0847
10,ATGGGCCC,-0.295
11,CTTCGTGC,0.0593
12,AGGGCGTC,-0.131
13,TCCCGACA,-0.139
14,AAAGAATA,0.193
15,GTCCTCTA,-0.231
16,AGACTTCA,-0.038
17,AATAAGAA,0.0689
18,AATTGGTA,0.126
19,CGATTCAG,-0.0385
20,GCTGTCTA,-0.155
21,CCATTAGC,0.00959
22,AAGAGTCT,-0.275
23,CAAGGTCG,-0.191
24,CACTGAAG,-0.222
25,CGGGCCTC,-0.0722

row,Sequence,PBM E-score
1,CGAGTTAA,0.202
2,AAAACACC,0.0848
3,CTTCAGCC,-0.149
4,ACGTAGCG,0.42
5,ACGACAAA,0.223
6,AGCAGGCA,-0.204
7,TACCACAA,0.209
8,AGTCGATC,-0.162
9,TCCTAACA,0.0335
10,CGGCGGGC,-0.195
11,GGTAGTTA,0.0808
12,ACGCTGGG,-0.109
13,GTGATTCA,0.0454
14,CGTAATTA,0.439
15,CAGATCAC,-0.0715
16,CGTACGAC,0.308
17,GGAGTCGA,-0.324
18,CGATGGAG,-0.142
19,ACTGGGAT,-0.113
20,AGGCAAGG,-0.225
21,CGGCAGGC,-0.236
22,ACATATAC,0.202
23,ATGGACGG,-0.116
24,CAGTCCGC,-0.145
25,CACCGTGG,-0.187

row,Sequence,PBM E-score
1,GGCTGCGA,-0.0587
2,AGCTAAAG,0.161
3,CATCAAAG,-0.0695
4,ACTACGTG,0.415
5,AAACCTTA,0.0644
6,AAACTATA,0.0408
7,ACGACGCC,0.0289
8,ATGCGAGA,-0.0225
9,CCGCTGCC,-0.311
10,CAAATACC,-0.0908
11,ATCGTGAG,-0.176
12,CGCGTCAA,0.34
13,CGAATCTC,0.0112
14,AGCCAAAC,-0.0154
15,ATACTAAA,0.195
16,CAATCGGG,-0.0624
17,CTGCGTCC,-0.112
18,GGCTTTAA,-0.0239
19,GAGATCTC,-0.19
20,ATCCTGTA,0.106
21,TAGAGACA,-0.0315
22,GGCATTAC,0.169
23,AGCAAATG,-0.0717
24,AGATGAGC,0.116
25,TATGTAGA,0.215

row,Sequence,PBM E-score
1,CCGAGCTA,-0.221
2,CACGAGGA,-0.213
3,CATGCAAG,-0.184
4,ATGGTGGC,-0.29
5,ATATTTAC,0.27
6,GAGTCATA,0.122
7,GGAACGGA,-0.185
8,AAAAGTGA,0.132
9,CGCCTACA,-0.0932
10,AGTAACAA,0.203
11,GCACGCAA,0.252
12,CGCCTAGC,-0.346
13,GGAATATA,0.0732
14,CTACAGAG,0.0909
15,CCCACGAA,0.0343
16,CTTAGGAC,-0.042
17,AGTGTTTG,0.117
18,TACTAGCA,0.114
19,TCCAGTAA,-0.181
20,CGGCTGAC,0.0465
21,CTTCTCGC,-0.111
22,AGCTACAC,0.036
23,AGCGAACG,-0.129
24,CGGAGCCG,-0.321
25,ACGAATCG,0.238

row,Sequence,PBM E-score
1,CGGTTGCA,-0.176
2,GATACAGA,-0.07
3,ATCATGAG,0.211
4,GATACCTA,0.138
5,ATTTCGCC,-0.0513
6,CGTTTCTA,0.247
7,CATGCCAG,-0.191
8,GAAGGTGC,-0.314
9,GTTCTCTA,0.0251
10,CGCTTAGA,-0.155
11,GATATCTA,0.0935
12,CATCGCCA,0.0684
13,AAACCCTT,-0.0434
14,CCAAGATA,0.0108
15,AACTGGCC,-0.148
16,ACGATGTC,0.204
17,AGCGTTAT,0.0494
18,ACATTTAG,-0.106
19,TCGATCGA,-0.216
20,GATAGGTA,0.18
21,GCTCGCGA,-0.055
22,AATCCTGG,-0.199
